Measured values published in US6638910B2, “Compositions and methods for controlling plant pests” (priority 1997, dated 2003).
Where “and” joins values, the source holds several entries; their conditions need not be identical. Equal values may be shown once. Starred links: 1 amine or outer side, 2 acyl side, 3 side chain; linkers in the order of their positions; H or OH if unused. Positions of bridges follow the written chain, without caps; N, C: chain ends. Non-standard residues stand in square brackets, D forms with d. Residues, ends and D or L forms follow the SMILES beside them. X1 = CC(C)CCCCCCCCC[C@H](CC(=O)[*:1])O[*:2]

Test system: green peach aphid, Myzus persicae
Experiment: 96-well plate filter paper disk test against green peach aphid, score rating
Details: Table 16; 4 is no dead insects, 1 is 100% kill
Procedure: AQ713 was tested in medium 4 using batches of AQ713 grown twice in two different 10 liter fermenters and twice in one 400 liter fermenters for 48 hours. The green peach aphid, Myzus persicae was tested in addition to corn rootworm and armyworm. Both whole broth (WB) and supernatant (S) were tested from one of the 400 liter batches. To test green peach aphid, 40 microliters of the sample of AQ713 were pipetted onto a small filter paper disk at the bottom of each of 8 wells in a 96-well plate. The plates are then dried under a fume hood for 1-2 hours. Aphids are added to each well by gently tapping the aphids off of cabbage leaves. The bottom of the well was covered with aphids. When a column of wells is filled, the plate is capped with a cap strip to keep the aphids in place. The test plates are incubated at 20-22° C. The test is rated in 48 hours, using a microscope to count the number of aphids alive and dead. The wells are then given a score on a scale from 1 to 4 as with the other insects (4 is no dead insects, 1 is 100% kill).

SMILES: CC(C)CCCCCCCCC[C@@H]1CC(=O)N[C@@H](CCC(=O)O)C(=O)N[C@@H](CC(C)C)C(=O)N[C@H](CC(C)C)C(=O)N[C@@H](C(C)C)C(=O)N[C@@H](CC(=O)O)C(=O)N[C@H](CC(C)C)C(=O)N[C@@H](CC(C)C)C(=O)O1 [Surfactin] (EL[dL]VD[dL]L; linker N-C via X1)
- Activity score, Green Peach aphid: 2.0 and 3.0
